System: male Sprague-Dawley or Wistar rats
Assay: Food intake and body weight after intracerebroventricular injection in fasted rats
Assay type: in vivo
Conditions: ICV administration to rat brain ventricles
Excerpt: Alpha-MSH mimetibody was supplied to brain ventricules by intracerebroventricular injections (ICV) via a cannula surgically inserted into the left lateral brain ventricle.
Cannulae were surgically inserted into male Sprague-Dawley or Wistar rats weighing 250 g to 350 g. Cannula placement coordinates were as follows: −0.8 mm from bregma, −4.5 mm ventral and −1.5 posterior-anterior. Animals recovered for 7 to 10 days after surgery. Animals were acclimatized to the experimental procedures by both daily handling and mock injection, in order to minimize stress. In addition animals were submitted to the reversal of dark-light cycle.
Proper cannula placement was confirmed by an angiotensin II test. The test confirmed proper cannula placement if the ICV administration of 10 ng of angiotensin II via the cannula caused the rats to drink 5-10 ml of water in 30 minutes. Only animals that passed this angiotensin II test were used in food intake experiments.
Food and water was given to the animals after injection. The amount of food and water consumed was measured at 0 h, 4 h, 24 h, 48 h and 72 h (FIG. 7) after injection.

B1: alpha-MSH mimetibody: protein comprising secretory signal, alpha-MSH peptide, linker, VH, hinge, human IgG1 CH2 and CH3 sequences (SEQ ID NO: 62) (protein)
chain: MAWVWTLLFLMAAAQSIQAQIQSYSMEHFRWGKPVGSGGGSGTLVTVSS[human IgG1 Fc not spelt out]
modifications: Melanocortin receptor binding alpha-MSH mimetibody with secretory signal and V1 encoded by an in vitro synthesized DNA
For B1, the animal body weight (72 hours post injection, FIG. 8) was “decreases” and the animal food intake (measured 0-72 h after injection, FIG. 7) was “decreases animal food intake”.
